Laboratory results reported in paper PMC4336329 (PLoS ONE, 2015).
The whole screen tested about 310,000 compounds, of which about 14,000 (4.5%) showed an effect of 50% or more. Effects have a minus sign here. The list shows a part of the results.

molecular target: human ether-à-go-go-related gene (hERG) potassium channel (human, UniProt Q12809); assay: primary screen, population patch clamp on CHO cells stably expressing hERG
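Also: peak tail current of the secondary pulse compared with the same well before compound.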

Chain of human ether-à-go-go-related gene (hERG) potassium channel (Q12809 whole entry, looked up): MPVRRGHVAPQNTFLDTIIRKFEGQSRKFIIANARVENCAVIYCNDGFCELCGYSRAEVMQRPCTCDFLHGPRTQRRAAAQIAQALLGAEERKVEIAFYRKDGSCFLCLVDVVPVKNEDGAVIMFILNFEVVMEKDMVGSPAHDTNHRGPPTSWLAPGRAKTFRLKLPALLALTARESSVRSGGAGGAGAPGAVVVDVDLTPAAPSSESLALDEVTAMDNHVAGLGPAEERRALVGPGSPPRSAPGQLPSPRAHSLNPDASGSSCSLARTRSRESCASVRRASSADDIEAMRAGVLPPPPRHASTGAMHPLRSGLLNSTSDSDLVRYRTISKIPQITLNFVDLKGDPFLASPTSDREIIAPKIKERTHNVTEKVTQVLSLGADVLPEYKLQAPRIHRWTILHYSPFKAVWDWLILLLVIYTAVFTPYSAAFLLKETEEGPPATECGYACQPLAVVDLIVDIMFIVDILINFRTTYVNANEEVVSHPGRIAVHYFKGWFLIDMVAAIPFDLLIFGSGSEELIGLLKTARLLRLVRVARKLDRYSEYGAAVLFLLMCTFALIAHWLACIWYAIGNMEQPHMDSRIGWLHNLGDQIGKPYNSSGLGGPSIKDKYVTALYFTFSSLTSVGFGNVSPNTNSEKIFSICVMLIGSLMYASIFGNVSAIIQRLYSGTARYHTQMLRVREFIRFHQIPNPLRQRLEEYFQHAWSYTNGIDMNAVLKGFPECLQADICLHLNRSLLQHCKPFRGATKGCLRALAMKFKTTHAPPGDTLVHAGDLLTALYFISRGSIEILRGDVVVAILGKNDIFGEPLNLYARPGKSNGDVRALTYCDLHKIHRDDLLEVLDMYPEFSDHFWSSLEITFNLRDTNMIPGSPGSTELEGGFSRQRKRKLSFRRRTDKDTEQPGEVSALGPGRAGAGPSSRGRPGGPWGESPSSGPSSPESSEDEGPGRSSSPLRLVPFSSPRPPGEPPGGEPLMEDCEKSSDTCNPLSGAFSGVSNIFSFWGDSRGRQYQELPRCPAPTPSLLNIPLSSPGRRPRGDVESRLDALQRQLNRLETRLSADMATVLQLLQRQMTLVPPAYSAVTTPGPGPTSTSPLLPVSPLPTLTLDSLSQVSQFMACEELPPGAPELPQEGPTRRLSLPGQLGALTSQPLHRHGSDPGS

| SMILES | hERG current change (%, negative = inhibition) at 10uM |
| --- | --- |
| O=C(NNS(=O)(=O)c1ccc(Cl)cc1)c1cccs1 | 10.5% |
| COc1ccc(S(=O)(=O)N2CCN(c3nc(C)cc(C)n3)CC2)cc1 | 2.96% |
| O=C(C1CCCN(S(=O)(=O)c2ccccc2)C1)N1CCCCCC1 (stereo not drawn) | -2.74% |
| c1ccc2c(c1)CCN(c1nc3ccccc3n3cnnc13)C2 | -10.1% |
| CCSc1nc(=S)n(CC)c(C)c1C(C)=O | -0.368% |
| CCN1CCN(CCC2Oc3cc([N+](=O)[O-])ccc3NC2=O)CC1 (stereo not drawn) | 13.7% |
| COc1cc(C2(c3ccc(O)c(OC)c3)C(=O)Nc3c(C)cc(Br)cc32)ccc1O | -23.1% |
| O=C(c1ccccc1)C1CCN(C(=O)c2c(F)cccc2F)CC1 | 12.4% |
| CN(C)S(=O)(=O)c1cccc(NC(=S)N/N=C/C2CC=CCC2)c1 (stereo not drawn) | -4.08% |
| COc1ccc(C(=O)Nc2nc(N)n(-c3ccccc3)n2)cc1OC | -0.41% |
| CN(CC(=O)Nc1ccc(F)cc1)CC(=O)N1CCCCCC1 | 0.678% |
| COc1cc2cc(CN(CCCN3CCOCC3)Cc3nnnn3Cc3ccccc3)c(=O)[nH]c2cc1OC | -20.2% |
| Cl.O=C([C@H](Cc1ccc(O)cc1)n1cc(CCO)nn1)N1CCNCC1 | 24% |
| CN(C)CCN(Cc1cc2cc3c(cc2[nH]c1=O)OCO3)C(=S)NCc1ccco1 | -11.4% |
| CCOc1ccc(CNC(=O)c2ccc(NC(=O)C3=CSCCO3)cc2)cc1 | 12% |
| Cc1cc(C)c(C)c(S(=O)(=O)N2CCN(Cc3nc4ccccc4[nH]3)CC2)c1C | 0.133% |
| O=c1cc(CN2CCN(c3ccccn3)CC2)nc2sccn12 | 8.72% |
| COc1cccc(OC)c1OCCNC(C)(C)C.O=C(O)C(=O)O | 7.11% |
| Cn1[nH]c(=O)c(Cl)c(Cl)c1=O | 11.5% |

| SMILES | hERG current change (%, negative = inhibition) at 10uM |
| --- | --- |
| COCCN(C(=O)COC(=O)Cc1cccc(OC)c1)c1c(N)n(Cc2ccccc2)c(=O)[nH]c1=O | -15.6% |
| NC(=O)CSc1nnc(-c2ccncc2)n1-c1ccc(Cl)cc1 | -21.5% |
| N#C/C(=C\c1ccc(-c2cccc([N+](=O)[O-])c2)o1)C(=O)NCCN1CCOCC1 | -47.2% |
| Fc1ccc(Cc2nnc(-c3cccs3)o2)cc1 | -18.7% |
| O=C(Nc1ccc(NC(=O)c2sc3ccccc3c2Cl)cc1)c1ccco1 | 38.5% |
| CC1(C)Cc2c(cnn2-c2cccc(F)c2)C(NC(=O)c2ccc(=O)[nH]n2)C1 (stereo not drawn) | -70.2% |
| Cl.Nc1ccc(Br)c2cccnc12 | 11.6% |
| Cc1ccc(S(=O)(=O)CC2CSc3nnc(C)c(=O)n32)cc1 (stereo not drawn) | 18.6% |
| COc1cccc(CN(C)C(=O)c2cc(-c3ccc(OC)c(OC)c3)nc3ccccc23)c1 | -21.3% |
| COc1ccc(NC(=S)N/C(=N/S(=O)(=O)c2ccc(C)cc2)c2ccccc2)cc1 | 21.2% |
| O=C(CCCOc1ccc(Cl)cc1Cl)N1CCc2ccccc2C1 | 12% |
| O=S1(=O)N=C(Oc2cccc3ccccc23)c2ccccc21 | 7.02% |
| O=C(C1=C(O)C(=O)N(CCCn2ccnc2)C1c1ccccc1)c1ccco1 (stereo not drawn) | 7.9% |
| COc1ccccc1N1CCN(C(=O)CN2C(=O)c3ccccc3S2(=O)=O)CC1 | -4.91% |
| CNc1c(NS(=O)(=O)c2ccc(C(C)(C)C)cc2)c(=O)oc2ccccc12 | -29.6% |
| COc1ccc(N=C2SCC(c3ccccc3)=NN2C)cc1 | 8.46% |
| Cc1cc(C)n2c(SCC(=O)Nc3ccc(F)cc3F)nnc2n1 | 65.3% |
| O=C(CNc1c(Br)cc(Br)cc1Br)NN=C1CCCCC1 | -7.41% |
| CC(C)(C)NC(=O)COc1ccc(CNCc2cccs2)cc1.Cl | 2.41% |

| SMILES | hERG current change (%, negative = inhibition) at 10uM |
| --- | --- |
| Cn1c(=O)c2c(nc(SCCN3CCCCC3)n2Cc2ccccc2)n(C)c1=O | -76% |
| CC(C)(C)C1CCC(=NOC(=O)c2ccc(F)cc2)CC1 (stereo not drawn) | 15.7% |
| Cc1ccc(CNc2nc(N)c([N+](=O)[O-])c(Nc3cccc(F)c3)n2)cc1 | -6.33% |
| Cc1cc(=O)[nH]c(SCC(=O)c2ccc(O)c(O)c2)n1 | 22.6% |
| C/C(=N\NC(=O)CCC(=O)Nc1ccc(C)c(C)c1)C1CC1 | 10.7% |
| O=C(CSc1nc2ccccc2[nH]1)N/N=C/c1ccncc1 | -2.17% |
| CC1(C)Cn2c(nnc2-c2ccccc2)S1 | 14.1% |
| CC1(C)CC(CC(=O)Nc2ccc([N+](=O)[O-])cc2)C(=O)O1 (stereo not drawn) | -22.5% |
| O=C(CN(C(=O)CSc1nnc(COc2ccccc2)o1)c1ccc(F)cc1)NC1CCCCC1 | -15.8% |
| Cc1ccc(N2CCN(S(=O)(=O)c3cccs3)CC2C)cc1 (stereo not drawn) | -8.24% |
| O=C(CSc1nnc(NC(=O)c2c(F)cccc2F)s1)Nc1ccc(F)cc1 | -11.7% |
| COC(C(=O)Nc1ccc(F)c(F)c1)c1ccccc1 (stereo not drawn) | -13.7% |
| CCOC(=O)C1(Cc2ccccc2)CCN(Cc2ccc(C)s2)CC1 | -46% |
| O=C(c1ccc(CS(=O)(=O)c2ccccc2)o1)N1CCN(c2ncccn2)CC1 | -14.5% |
| CC(C)=CC(=O)OCC(=O)NC1CCCc2ccccc21 (stereo not drawn) | 1.17% |
| N#Cc1c(NC(=S)NC(=O)c2ccccc2)sc2c1CCN(CCc1ccccc1)C2 | -27.1% |
| CON(c1nc(Cl)nc(N(C)C)n1)S(=O)(=O)c1ccccc1Cl | 3.34% |
| COc1ccccc1-c1noc(-c2ccccc2C(=O)NCC2CCCO2)n1 (stereo not drawn) | 9.42% |
| CCCn1cc(S(=O)(=O)c2ccccc2)c(=O)c2cc(CC)ccc21 | 21.3% |
